# Source: the RNAGym collection of RNA variant scans (doi:10.1073/pnas.2313332121)
# Variants at the background level are over-represented here.
# B1: TPR 5TU (parent)
# chain: GGAUCUUCUCGAUCUAACAAAAAAGACAAAUCUGCCACAAAGCUUGAGAGCAUCUUCGGAUGCAGAGGCGGCAGCCUUCGGUGGCGCGAUAGCGCCAACGUUCUCAACUAUGACACGCAAAACGCGUGCUCCGUUGAAUGGAGUUUAUCAUG
# Variants of: B1
# Assay: polymerase ribozyme fitness, log enrichment relative to wild type (log ratio); higher = more active; in vitro selection for triplet polymerase activity
# Method in brief: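 A single round of triplicate in vitro selection, including frozen incubation at −7 °C, was applied to PCR-built, transcribed mutant libraries of each subunit of a heterodimeric triplet polymerase ribozyme. Illumina sequencing of input and output libraries retained genotypes with ≥10 input reads and ≥1 read per output. Fitness is the base-2 logarithm of genotype enrichment divided by wild-type enrichment, from inverse-variance-weighted replicate averages.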
row,Variant,polymerase ribozyme fitness (log ratio)
1,U9G C35A A41C G88C,≤ -4.2
2,C8U U45G C63G A91G C93U U146G,≤ -4.2
3,U9A A12U C85U G88C U148G,≤ -4.2
4,U9C A17C C54U A120G,≤ -4.2
5,U9A A24U A52G G70C A107C U144A,≤ -4.2
6,U9C A12G A22U C75G G83C C85A C99A,≤ -4.2
7,U9G C85U C95U U146A,≤ -4.2
8,C10A A21C C114U A119U,≤ -4.2
9,U9G G71A G81C U109C C129G G143A U145C,≤ -4.2
10,U9C A40G C85A A110G,≤ -4.2
11,C8U C79A G84A C87A A137C,≤ -4.2
12,U9G C85A G143A,≤ -4.2
13,U9A A19U G133C,≤ -4.2
14,U9G U55A C95U U104G U134A U139C U151G,≤ -4.2
15,U9G A23C C32G U55G G65A C85U C116U C132G,≤ -4.2
16,U9G A21C C54G U82G G141C,≤ -4.2
17,U9C G68C U101C C149G G152A,≤ -4.2
18,U9C A29U C72U G84A,≤ -4.2
19,U9A G11U C54U A66G C72U G81C C96A A107G G133U U145A,≤ -4.2
20,U9A A40C G46U C85U C96A,≤ -4.2
21,U9A C93U C99A,≤ -4.2
22,U9G A91U C114U U148C,≤ -4.2
23,U9C G58C A91G C105G A110G,≤ -4.2
24,C8U U61G C85G C105G A115C,≤ -4.2

row,Variant,polymerase ribozyme fitness (log ratio)
1,C8U C32U U53A G70A C87U U130A,≤ -4.2
2,C8U C36A A49G C72U G86C G140A,≤ -4.2
3,C10A A21U C85U C87A C105U A106U C132U,≤ -4.2
4,C8U C35U A41C G58C G68U G86U C114A G140A,≤ -4.2
5,U9C U33A C69A A91G,≤ -4.2
6,U9A A21U,-3.81
7,U9C C10U C32A A39U A49C A60C G65U A66U G83A C87G,≤ -4.2
8,U9G A23U G34C A47C C76A C87U,≤ -4.2
9,U9A G74A A106G A122U,≤ -4.2
10,U9A G34C C95A,≤ -4.2
11,U9A A24C C93A C103G A113U C114U,≤ -4.2
12,U9C C96U A122G,≤ -4.2
13,U9G A64U A66C A142C,≤ -4.2
14,U9C A16U C79U C87A G94U C131A A142U,≤ -4.2
15,U9C A26U C38U C54A A66C U78A A89C A97G,≤ -4.2
16,U9G C93U C99G G100C U109C,≤ -4.2
17,C8U U31A G48C A60G C72U C95G A121C U148A,≤ -4.2
18,U9C G11U G68C U104G C105G C118U G133C,≤ -4.2
19,U9G U44G G50A U82C C95U U139G,≤ -4.2
20,U9G G11U U44A A91C C96G A119C,≤ -4.2
21,C10A A21U A40U G83A C125A,≤ -4.2
22,C8U U44A C131U,≤ -4.2
23,U9G C10G C35A G84U,≤ -4.2
24,U9G C43G C85G C87U C96U C118A A119U A120G,≤ -4.2

row,Variant,polymerase ribozyme fitness (log ratio)
1,U9A U15G A20C C85G C96A A106U C118A G128U,≤ -4.2
2,C8U G70U C76A G81U C85U U101A U134A,≤ -4.2
3,U9A C32U U55A,≤ -4.2
4,U9G A26G G74U C76A G86U G141C,≤ -4.2
5,C8U C57U U61A A64C G94A A107C A138U,≤ -4.2
6,U9C C27U A40U G92A C95A,≤ -4.2
7,U9G A12G C96A C125U U134A,≤ -4.2
8,U9A C14A C93U,≤ -4.2
9,U9G C27G C36A C57A U104G A110G A119G,≤ -4.2
10,U9A G68C C103G A119C,≤ -4.2
11,U9G U53A G70C G86C A122U C125U,≤ -4.2
12,U9A U135G,≤ -4.2
13,C10A A16U C36U C75A C96U,≤ -4.2
14,U9G G81C C87A A138C,≤ -4.2
15,C8U C32A A49G G92A C96U U127G A138G,≤ -4.2
16,U9G G81U G88A A97G U148G,≤ -4.2
17,C10A A16U G48U G80U C87A A147C,≤ -4.2
18,C8U C27U C54A U55A A97U C103G U134G,≤ -4.2
19,U9C A12C C76A A91G A120G A147U,≤ -4.2
20,U9G A19U U31A G62C U77G C93A U111A U134A U139A,≤ -4.2
21,C8U C93U C99G,≤ -4.2
22,U9A G94U C108A C116U,≤ -4.2
23,U9C A28U C32G G94C A98U A106U A137G G140A,≤ -4.2
24,U9A A137G,≤ -4.2

row,Variant,polymerase ribozyme fitness (log ratio)
1,U9C A12C A20G U53A A73U G92U C114A A121U G140A U151A,≤ -4.2
2,U9A G46A G67A C85A A147G U151A,≤ -4.2
3,U9C A29U C69U C76A C85U C125G A137C G141U,≤ -4.2
4,U9G U31C A40G G50A G83A G86U G133C A142U G152U,≤ -4.2
5,C8U C99A,-3.69
6,U9G G25C C27U C35U U102A A147C,≤ -4.2
7,C10A A17G A30U A37G A41U G86A G141U U144A,≤ -4.2
8,U9G G70C C87U A119G G124A G141U,≤ -4.2
9,U9G C36A C54U G59A C69A U77A G88C,≤ -4.2
10,U9G C18U G46C G83C A107U C125A,≤ -4.2
11,C8U C32U C85U C125G C132A,≤ -4.2
12,C8U G11A A47U A107G C108U U109G U135A,≤ -4.2
13,U9G A66G,≤ -4.2
14,U9G U13G A22C A28U A41C C76U G92A U148A,≤ -4.2
15,U9G G50C C93U G141C,≤ -4.2
16,U9G U55A C96G C116A,-4.14
17,C10A A12U U45A G58U C85U,≤ -4.2
18,U9A A30U A37G U44A G68C C85A C96U A120G U139G A142G U144A,≤ -4.2
19,U9G A29U G42C A52G G65C C85A A91G G143A,≤ -4.2
20,U9A A39U U61A C76U C93A A120U G141A,≤ -4.2
21,U9G C32U C38U A49C G58A A60U G86A,≤ -4.2
22,U9C A60C U82G G84A G86U C118G,≤ -4.2
23,C8U G42A U55A C57A C85U C87A A142U,≤ -4.2
24,C8U C95U,-2.24

row,Variant,polymerase ribozyme fitness (log ratio)
1,U9A G25A A52U C149U,≤ -4.2
2,U9A U45A U53A G58A C96U A98G A120C U134G G143A,≤ -4.2
3,U9G G84A G117C C129U,≤ -4.2
4,U9A G11A A30U G74U U104C,≤ -4.2
5,C8U U82A G92C G100C G124U C132U,≤ -4.2
6,U9A C76A C85U G100C U104G A115U,≤ -4.2
7,U9A A24C A49C G74C A91G U148A,≤ -4.2
8,U9C A19G A21C C35U A49G A52U C87U U102C U151C,≤ -4.2
9,U9G U55C C69G C85A A142C,≤ -4.2
10,C10A A17C A39C G58A C85A C95A A142C,≤ -4.2
11,U9A C75U G88C C99G U101A C118U A137C,≤ -4.2
12,C10A A12U U77A C79U G80C C85A G117U C118G U127G G152A,≤ -4.2
13,U9C G50C G86A C93G C99U U134A A142U,≤ -4.2
14,U9A G94U C95U C103G C132U,≤ -4.2
15,U9C U31A U55A G59C U82G C108A C129G U144C,≤ -4.2
16,U9A C75G C85G C95G,≤ -4.2
17,C10A A20C C35A A41U G59C C96G C123U,≤ -4.2
18,U9G C14G A110C C123U G141A,≤ -4.2
19,U9A A23C A24G G84A G88U C93U C149U,≤ -4.2
20,U9C G59A G84C G88A U134A G141A,≤ -4.2
21,U9A A21G C116G A122G,≤ -4.2
22,C8U G94A,-3.24
23,U9A A39U A49G G59A C75U G84U G94A U130C,≤ -4.2
24,U9G G86C,≤ -4.2

row,Variant,polymerase ribozyme fitness (log ratio)
1,C10A A21U U77G G88A U90G C95G,≤ -4.2
2,U9G C10U U55A C95U C105A C108G,≤ -4.2
3,U9G G50A A64G G83C,≤ -4.2
4,C8U G11C A23C A60G G94U G136U U144A,≤ -4.2
5,U9G U56G U90G A119U G141U,≤ -4.2
6,U9G C96U A97G C103G A115U U127A,≤ -4.2
7,U9C C93A,≤ -4.2
8,U9G A39C G59A A89G C93A U148A,≤ -4.2
9,C10A A17G C38U C87U C103G C116G C149G,≤ -4.2
10,C8U G71U G81C A89C,≤ -4.2
11,U9G A39C U56A G86A A120U U148G,≤ -4.2
12,C10A A12C G92A C116G,≤ -4.2
13,C8U U9C A20G A24U C36U G80A G92A A137U U148A,≤ -4.2
14,U9G G62C G74A C93U A138C,≤ -4.2
15,C10A A20U G62U,≤ -4.2
16,U9G C14A A24U C105G,≤ -4.2
17,C10A A12C G92A C116G C149G,≤ -4.2
18,U9G U33A C36A C63U C79G C118A U135A,≤ -4.2
19,U9C G11C A16C A40G U44A U55G U56A C93U U144C U151G,≤ -4.2
20,C10A A17C A41G C54G U55A C85U C95U U104G G126U A138G G152U,≤ -4.2
21,U9C U13A U15A C76U G86U,-4.11
22,C8U U9A A26G A49U C54G C79U G81A G83C C85U C116U G117A,≤ -4.2
23,C10A A21C C36U U61A G92A C95U U101G,≤ -4.2
24,C8U C14U U31G C108U A138C,≤ -4.2

row,Variant,polymerase ribozyme fitness (log ratio)
1,C8U C54A,-3.8
2,U9C C54G,≤ -4.2
3,U9C A20U C75G C76U U82A C85A C96U A106C,≤ -4.2
4,U9G A28C C57A C116A C129G,≤ -4.2
5,C10A A20G A97G A115G C131G G143C,≤ -4.2
6,U9C C27U A41U A49U A60C A66G C76A A91U G140C U146A U148G,≤ -4.2
7,U9G U33G G86A C103G,≤ -4.2
8,C8U G50U G71C C85G,≤ -4.2
9,C8U G58C C85U A97U A119U,≤ -4.2
10,C8U C35A C85A C105G G117C,≤ -4.2
11,U9G A21U A24G C72U A147C,≤ -4.2
12,C10A A12G A60G C93A,≤ -4.2
13,U9C A110U,≤ -4.2
14,C8U C10G A47U A60C C87A C114U,≤ -4.2
15,C8U C51U C93U C123U C129G,≤ -4.2
16,U9G U13G A19U G50C C93A A98C A120C,≤ -4.2
17,U9C C10G,-4.15
18,C8U G11A U53A C93A U130G,≤ -4.2
19,U9A A12C G67A C93U A147G C149U,≤ -4.2
20,U9G C51U A60G C69G C96U,≤ -4.2
21,U9A G84U U102A,≤ -4.2
22,U9G A12U C18G G84C U90A A97U U101G A121U,≤ -4.2
23,C8U C85G C93G,≤ -4.2
